Assay results reported in the supplement of paper PMC12217912.
Some of the results follow. Sequences were assembled here from the parent chain. Values near 0.05 are background.

B1: TEV protease; numbered along this chain (parent)
chain: MGESLFKGPRDYNPISSSICHLTNESDGHTTSLYGIGFGPFIITNKHLFRRNNGTLVVQSLHGVFKVKDTTTLQQHLVDGRDMIIIRMPKDFPPFPQKLKFREPQREERICLVTTNFQTKSMSSMVSDTSCTFPSGDGIFWKHWIQTKDGQCGSPLVSTRDGFIVGIHSASNFTNTNNYFTSVPKNFMELLTNQEAQQWVSGWRLNADSVLWGGHKVFMVKPEEPFQPVKEATQL

Variants of: B1
Assay: raw area under fraction-flipped curve 0-4 h after induction (AUC4h, not background-subtracted), DNA-recorder readout of cleavage of the substrate (dimensionless); higher = more cleavage of the substrate by the protease variant
Settings: temperature: 34 °C; time window: 0-4 h after rhamnose induction
Method: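 In vivo DNA recorder in E. coli TOP10(DE3) ΔrhaA at 34 °C. Each TEVp single-site mutant (parent TEVp 0) is paired with a single-site variant of the 7-mer TEVs (canonical ENLYFQ|S). The substrate sits between flexible linkers in a Bxb1-sfGFP-TEVs-SsrA fusion, so cleavage stabilises Bxb1 and speeds flipping of a recombination array, read by NGS. The value is the raw area under the fraction-flipped curve over 0-4 h after rhamnose induction (AUC4h), with ≥20 reads per time point. It is not background-subtracted; inactive controls average about 0.047.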
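Note: Bxb1 expression induced with 0.2% (w/v) L-rhamnose at OD600 near 0.5, cultures sampled hourly, flipped fraction per protease–substrate barcode pair counted by paired-end Illumina sequencing.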

Row | Variant | area with substrate ENLYFQA | area with substrate ENLYFQC | area with substrate ENLYFQD | area with substrate ENLYFQE | area with substrate ENLYFQG | area with substrate ENLYFQH | area with substrate ENLYFQI | area with substrate ENLYFQK | area with substrate ENLYFQL | area with substrate ENLYFQN | area with substrate ENLYFQR | area with substrate ENLYFQS | area with substrate ENLYFQT | area with substrate ENLYFQW | area with substrate ENLYFQY | area with substrate ENLYFQP | area with substrate ENLYFQV | area with substrate ENLYFQF | area with substrate ENLYFQM | area with substrate ENLYFQQ
1 | M83D | 0.0356 | 0.0542 | 0.0467 | 0.0548 | 0.0686 | 0.0428 | 0.059 | 0.0494 | 0.0474 | 0.0458 | 0.0481 | 0.0532 | 0.0515 | 0.0341 | 0.0624 | – | – | – | – | –
2 | S124R | 0.109 | 0.128 | 0.0686 | – | 0.0906 | 0.0772 | 0.0525 | – | 0.0582 | 0.0719 | 0.0718 | 0.111 | 0.0643 | 0.082 | 0.0757 | 0.0604 | 0.0634 | – | – | –
3 | S124P | 0.101 | – | – | – | – | 0.0885 | – | 0.0658 | 0.0633 | 0.074 | 0.0592 | 0.102 | 0.0461 | 0.064 | 0.0727 | – | 0.0684 | 0.08 | 0.0962 | 0.0691
4 | R109W | 0.0951 | 0.116 | 0.0367 | – | – | 0.0931 | 0.0609 | 0.067 | 0.0587 | 0.069 | 0.065 | 0.0867 | 0.0687 | 0.0742 | – | 0.0839 | 0.0516 | 0.0686 | 0.083 | –
5 | R109G | 0.0861 | 0.125 | 0.0745 | – | 0.0858 | 0.0842 | 0.0541 | – | 0.0436 | 0.0749 | 0.0577 | 0.0935 | – | 0.0713 | – | 0.0599 | 0.068 | – | – | –
6 | R109I | 0.079 | 0.128 | 0.0693 | 0.0631 | 0.0885 | 0.0774 | 0.071 | 0.0585 | 0.0599 | 0.0635 | 0.0694 | 0.0898 | 0.0535 | – | 0.0812 | – | – | – | 0.0865 | 0.076
7 | F140G | 0.0572 | 0.0551 | – | 0.0579 | 0.0637 | – | 0.0476 | 0.0596 | 0.0737 | 0.0673 | 0.0543 | 0.063 | 0.058 | 0.0537 | 0.0601 | 0.0578 | 0.0577 | 0.0382 | 0.0712 | –
8 | V126Y | 0.0799 | 0.118 | 0.0798 | 0.0747 | 0.11 | 0.0853 | 0.0563 | – | 0.0616 | 0.0604 | 0.0675 | 0.102 | 0.0551 | 0.0697 | 0.0778 | – | 0.0608 | – | 0.0941 | –
9 | I110T | 0.0794 | 0.0879 | – | 0.0703 | 0.072 | 0.0752 | 0.052 | 0.0543 | 0.0547 | 0.0672 | 0.0516 | 0.0803 | 0.0683 | 0.0535 | 0.0474 | 0.0544 | – | 0.0465 | 0.0625 | –
10 | I110D | 0.0504 | 0.0483 | – | – | 0.0389 | 0.0468 | 0.0513 | 0.0381 | – | 0.043 | 0.0487 | 0.056 | 0.0684 | 0.0641 | 0.0583 | 0.0528 | 0.0616 | – | 0.0499 | 0.0427
11 | I110G | 0.0488 | 0.0513 | 0.0673 | – | 0.0581 | 0.0574 | 0.0598 | – | 0.0463 | 0.0538 | 0.0425 | 0.054 | 0.05 | 0.0492 | – | 0.0348 | 0.0483 | – | – | –
12 | F133W | 0.0832 | 0.123 | 0.0862 | – | – | 0.0734 | 0.0641 | 0.0663 | 0.0608 | 0.0896 | 0.0734 | 0.101 | 0.0694 | – | 0.0883 | – | 0.0603 | – | – | 0.0046
